Laboratory results taken from the supplement of paper PMC11417369.
This is one part of the list.

What follows are sequences tested on PfAP2-HC AP2 domain (GST-tagged) (assay: gcPBM binding intensity (ln(normalized median fluorescence intensity)); higher = stronger DNA binding).
Summary of the method: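 Binding intensity is defined as the maximum Masliner-normalised natural-log median intensity across replicate spots for either probe orientation. It was measured on an Agilent 4 × 180k array of primer-extended double-stranded 36-bp intergenic genomic probes and negative controls, to which GST-tagged P. falciparum DNA-binding domains made in E. coli were applied for 1 h in 1× PBS with 1% milk, 0.2 mg/ml BSA, 0.5% salmon testes DNA and 0.03% Triton X-100. Detection was by Alexa488 anti-GST antibody and scanning at 488 nm.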

| Sequence | gcPBM binding intensity (ln) |
| --- | --- |
| ATACATAAAATTAAAACACACATTTGATTAAATACG [CACACA_site7088] | 9.79 |
| ATCAAGCGCAATGTGGTGCGTAAATTTTGTATTATA | 9.6 |
| AAAGGATACAGACACACACACACATATATATATATA [CACACA_site906] | 10.8 |
| TCCTTAAAATATATCACACATTTCGTTCATTTATAA [CACACA_site4346] | 9.61 |
| TATATATATATATCCACACACATACAGATATTAAGA [CACACA_site4214] | 10.1 |
| AGTATACGAATAAAATGTACATACAAATTGTTGTAA [XGTACX_site36] | 9.81 |
| ATTCACGTGTCTTAAAAAAAAAAAAAAGAAAAAAAG [CACACA_negctrl_site573] | 9.25 |
| ATATATATATATATATGTACATATATATACATATAT [XGTACX_site6987] | 10.1 |
| ATAATATATATACAAACACACAATTGTGTCCACATT [CACACA_site1747] | 10 |
| TGTACATATATATAATATATATATCATCATATTTTC [CACACA_negctrl_site1750] | 9.69 |
| ATATATATGTGAAAATCACACATTGCTTATCTGTAA [CACACA_site6044] | 9.73 |
| TGTTTTATTATTTATAGTACATAAAAAAATATTGTA [XGTACX_site8963] | 9.36 |
| TTCGTATATTATTAATGTACATTATAAAATCAATAT [XGTACX_site5751] | 9.66 |
| AAAAAAACATGAAACACACACAAATATATATATATA [CACACA_site1884] | 10 |
| AACAATATTATTGTTTGTACTCACATATATAATATA [XGTACX_site8063] | 9.5 |
| AAAAAAAAAAAAAAAAAAAAAAAAAAAATTCTATAT [GTGCAC_negctrl_site468] | 9.62 |
| AAGGCATACAATACCTGTACGCAACCTTAAAAAGAA [XGTACX_site6070] | 9.73 |
| ATTTTCATGATAAAGGTGCAATTATTTTTATAAGAA | 9.58 |
| TATATATATATATATGGTACAGTTTATGCCTTTTAA [XGTACX_site6695] | 9.52 |
| TTATTTATAATATATACACACTAACATTATTTATCC [CACACA_site4835] | 9.69 |
| TATAATATATACAAATGTACATATATATATATATAT [XGTACX_site4559] | 9.57 |
| AGATATTTCATTTAAAGTACATTCTTTATCACATAA [XGTACX_site6731] | 9.57 |
| CACACGCACAAAAACACACACAAAGGTGTTCTTATA [CACACA_site6724] | 10.1 |

| Sequence | gcPBM binding intensity (ln) |
| --- | --- |
| TTATTTTTTTTTTTTCGTACTTATTTATCTTGGTAT [XGTACX_site78] | 9.59 |
| TTTTTATTAATAGATATAAATATATAATATGAATGT [TGCATGCA_negctrl_site309] | 9.55 |
| ATATATATATATATTTGTACAGATTTATATTATAAT [XGTACX_site7612] | 9.52 |
| CCATATAATATGAACAGTACACACAAAATAAATTCG [XGTACX_site7590] | 9.85 |
| AAATATTATAGCACCACACACTTATTTTATATATAT [CACACA_site5281] | 10.4 |
| GAAAATTTAATATAGAACGAAAGCATACACATATAT [GTGCAC_negctrl_site424] | 9.75 |
| AAAAATTTTTTTTCATTTGTTTTTATTCCGTAAAAA [CACACA_negctrl_site1217] | 9.17 |
| AATATAAAAAAAAAATGTACATATTATATATATATA [XGTACX_site5113] | 9.69 |
| ACCGAAGGAATTTATAGTACACATCATAAATAAATT [XGTACX_site4100] | 9.61 |
| TATAATATAAAATAATGTACTTTGAAATATGACATA [XGTACX_site3579] | 9.56 |
| AGTTTGATTTTTTCTTATAATATATTATTATATATT [CACACA_negctrl_site376] | 9.99 |
| TTTTTGTTTTTGTTTTGTACTCATACATACTATCAT [XGTACX_site4210] | 9.83 |
| GGGGTATCTTCCTATGCACACTTGTTATGTACTAAC [CACACA_site4610] | 10 |
| CTTTTATTAAAATTCACACACATAAATTTTTATAAA [CACACA_site1993] | 9.6 |
| ATATATACGTATGAATGTATATTTGTTTGATTTTTT [CACACA_negctrl_site835] | 9.66 |
| ATATGTGATTTCTAATGTACACAAAAAAAAAAAAAA [XGTACX_site7701] | 9.58 |
| TTATGTCATAAATGCACACATATATAAATACAGATA [CACACA_site4959] | 9.81 |
| TCTTCAAACAAAAAAAATAATAAAAAGTACAAAATG [CACACA_negctrl_site363] | 9.6 |
| CAAAGAGAAATAAACACACACAAAATAAAGAAAAAA [CACACA_site2245] | 10.3 |
| TTCTTTTTTCAACACACACACACAAGAAAATATATA [CACACA_site9019] | 10.3 |
| AAAAAAAAAAAAAAAACACACATATAGATTTATATA [CACACA_site7196] | 9.88 |
| TTTTTTCTATTGAGCACACATATCACGATTAGTACT [CACACA_site313] | 9.83 |
| ATATATATTATTTCTACACACATATATATAATATGT [CACACA_site3374] | 10.1 |

| Sequence | gcPBM binding intensity (ln) |
| --- | --- |
| GCTCAATTTTTGGGTACACACAAATGTATAATAATA [CACACA_site2388] | 9.74 |
| GCACTCGTAAAAAGCACACATATAAAAACATTTATA [CACACA_site322] | 9.74 |
| TGAACAGACAAATACACACACTCAAAAAAAAAAAAG [CACACA_site7287] | 10.1 |
| CAATGCTTTATCAATACATGCATATATATAGAAATA [TGCATGCA_site857] | 9.48 |
| ATTTTCAAATTCTATGCATGTGTATATTATAGATAA [TGCATGCA_site1003] | 9.55 |
| AAAATCTATAATATAACACACATATATTCTATATGG [CACACA_site7821] | 9.68 |
| TTCCTGTTAATTACAACACACAATTCTTATTTTATG [CACACA_site6507] | 9.96 |
| CATACATACAGACACACACACATATAAATACATACA [CACACA_site6533] | 10.3 |
| TTATGATATATTTGTTGTACGCTTTTTTTATGAACT [XGTACX_site573] | 9.73 |
| GTAAGTTGTGCATTCACACACATATAAATATAAATA [CACACA_site7536] | 9.9 |
| CATTATGTTGTAAATGCACACATACAAATACATATA [CACACA_site8380] | 9.78 |
| AATTAAATTACTTATACACACATAAAATGCCTGTAT [CACACA_site6597] | 9.84 |
| ATGACCCACTTTTCTGCACACATAAAAAATATATAA [CACACA_site8092] | 9.77 |
| AACACATACATATATACACACACAAAATAATAAAAT [CACACA_site8724] | 10.6 |
| TTAACAAAACTTTTAACACACAAAAAAAAAAAAAAA [CACACA_site6947] | 9.35 |
| CTATAATAATAAAGTGAACACACACCGATAATATAT [CACACA_site9377] | 10.1 |
| TTTTTTTTACATTCTGCACACAATTTATTTTTTTTT [CACACA_site36] | 10 |
| AAAAATGAGTGACACACACACATATAAATATAAATA [CACACA_site7115] | 10.1 |
| AAATCAAACTTTGGTGTGCACAAATATATACATATA [GTGCAC_site9986] | 10 |
| TTGATAATTATATAATGTACTCATTATAATATGATG [XGTACX_site7813] | 9.48 |
| TATAAAAAAAAAAAAAGTACTAACTTAAAACAATTT [XGTACX_site7969] | 9.51 |
| TAATTAATAATAATATGTACATATTAATATATTATT [XGTACX_site6900] | 9.61 |
| TTTTATATATATATCACACACACACCCATGTTTTAA [CACACA_site79] | 10.4 |

| Sequence | gcPBM binding intensity (ln) |
| --- | --- |
| TTTATTCTCAAACACACACACATATATATATATATA [CACACA_site2895] | 9.99 |
| TGATAAAGTAAATATACATGCGATTAGTTATATATA [TGCATGCA_site720] | 9.65 |
| TATTTATTCTCCAACACACACACATATATTTATATA [CACACA_site7376] | 10.4 |
| AGTTTGTCAATCAACACACACCTATTTATTATAGAT [CACACA_site7777] | 9.99 |
| GTGTTAAATGTTTACACACAAACTTGCAATAATTAT [CACACA_site3825] | 9.82 |
| TTGCATTTATTATACACACACAAAAAAATATATATA [CACACA_site238] | 10.5 |
| AAAAATTATAACTAAAAAAATCACACAAAATATTTT [TGCATGCA_negctrl_site28] | 9.59 |
| TATGTATTTAAGTTACCTGAACGTTCAGGTAAAATT [CACACA_negctrl_site1393] | 9.65 |
| GTAATTTTAAAGAAAAGTACACATTTATTAATTATT [XGTACX_site4468] | 9.54 |
| ACATATAAATATTGTGTGCACACACATAATATATAT | 11.3 |
| GTGTAGTAAAATCGATGTACGTACAAATCAATTATT [XGTACX_site7662] | 10 |
| AAAAAAATGAAGAAATGTACAAATTTCATTAATTTT [XGTACX_site354] | 9.55 |
| TATATATGTAAATGCACACATATGTGGATATACTTA [CACACA_site1699] | 9.82 |
| GCGAGATGCTAAAATGCATGTTGGGCATTAGTTAAA [TGCATGCA_site586] | 9.52 |
| TATAATAATTCTTTGAGTACTTAAACATGTGAAATT [XGTACX_site955] | 9.48 |
| TATCATTTCTAAAAAGGTACACATACATCATATATT [XGTACX_site3386] | 9.55 |
| ATATTAATATATGTGGCACACATGTGGAGTCCTATT [CACACA_site213] | 9.93 |
| GCAGGCTAAAAAATTACACACGAAAAAAATGAATTT [CACACA_site3417] | 9.61 |
| CATATATGGTTATATACATGCACCATTATATTATTA [TGCATGCA_site520] | 9.54 |
| TATATAATATTTTTCACACACCATTTCCTTAAACAC [CACACA_site4862] | 10.1 |
